Results: PubChem BioAssay AID1963576 (National Center for Advancing Translational Sciences (NCATS), 2024)
In all, about 46,000 compounds went through this assay and about 60 (0.1%) were called active. Another 3% or so got no clear call; they are omitted. The call rests on the fitted dose curve; in most records, active means well fitted inhibition curve with a large enough effect; inconclusive means small, poorly fitted or top-dose-only effect; inactive means no such curve, though single readings can be large or run the other way. This is one part of the list.

Assay: Primary qHTS assay for Inhibitors of ovarian cancer metastasis using an organotypic tumor microenvironment (TME) model. Further: nearly all actives have a fitted effect of over 65% in size.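 On activity change, negative = inhibition: plate controls were DMSO wells for no effect and tomatine positive control wells for full effect.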
Settings: SKOV3ip1-GFP adhesion/invasion on 3D omental model, fluorescence; series mostly up to 45.8 µM; activity change, negative = inhibition: at the top concentration
Procedure, shortened: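 qHTS, 4-pt dose (0.36-46 umol/L); SKOV3ip1-GFP, 1,200 cells/well, no FBS; primary omental fibroblast/mesothelial co-culture 48 h pre-grown; 2 h RT + 16 h 37 C; PBS wash, 4% PFA; GFP count 488/509 nm.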

Activity change, negative = inhibition, inactive:
CCc1ccc(CNC(=O)c2ccc3c(c2)nc2n3CCCCC2)cc1 1.01%, Fc1ccc(-n2ncc3c(N4CCN(Cc5ccccc5)CC4)ncnc32)cc1 6.2%, COC(=O)c1cc(OC)c(OC)cc1NC(=O)c1ccc2c(c1)CCN2S(=O)(=O)c1ccccc1 16.5%, CCOc1ccccc1CN1CCc2nc(Nc3ccccc3)ncc2C1 2.93%, Fc1ccccc1C1=NC(c2ccc(C(F)(F)F)cc2)=Nc2ccccc2N1 -6.55%, COc1ccccc1NC(=O)Cn1nc(C)n2cccc2c1=O -5.03%, O=C(c1ccc(F)cc1)n1nc(-c2ccc(Cl)cc2)nc1NCc1ccco1 -5.53%, Cc1ccc(CNC(=O)Cn2ccn(-c3cc(C)cc(C)c3)c(=O)c2=O)cc1 -1.95%, O=C(CSc1ccc2nnc(CCNS(=O)(=O)c3ccccc3)n2n1)Nc1ccccc1C(F)(F)F -0.0126%, CC(=O)N1c2ccc(S(=O)(=O)NCCC(=O)Nc3ccc(C)cc3Br)cc2CC1C (stereo not given) -7.69%, CCc1cccc(NC(=O)CN2c3ccccc3S(=O)(=O)c3ccccc32)c1 4.28%, O=C(Nc1c2c(nn1-c1ccc(Cl)cc1)CS(=O)(=O)C2)c1cccc(Cl)c1 -9.2%, Cc1ccc(N2CC(C(=O)NCc3nnnn3-c3ccc(C)c(C)c3)CC2=O)cc1 (stereo not given) 8.98%, COC(=O)c1ccc(Cn2c(SCC(=O)Nc3ccc(F)cc3)nc3ccccc32)cc1 1.02%, CCOc1ccc(-c2cc(NC(=O)Nc3ccccc3C(F)(F)F)c(C(=O)OC)s2)cc1 0.319%, CCCCOc1ccc(C(=O)Nc2ccc3c(c2)CCCN3S(=O)(=O)c2ccc(C)cc2)cc1 -3.11%, CCOc1ccc(NC(=O)Cn2c(=O)n(Cc3ccc(C(=O)NCc4ccc5c(c4)OCO5)cc3)c(=O)c3ccccc32)cc1 7.77%, CCCCN(CC)Cc1ccc(CNS(=O)(=O)c2cc3c(cc2Cl)NC(=O)CO3)o1 -5.91%, O=c1cc(N2CCOCC2)oc2c(-c3ccccc3)cccc12 -37.4%, CCOC(=O)c1c(C)oc2nc(C)nc(Nc3cc(C)ccc3OC)c12 0.955%, CCOc1ccccc1NC(=O)C1CCCN(S(=O)(=O)c2cn(C)cn2)C1 (stereo not given) -5.82%, COc1ccc(C(=O)Nc2ccccc2C(=O)OCc2cc(=O)n3nc(C4CC4)sc3n2)cc1 -7.13%, O=C(C1CCCCC1)N(Cc1cccnc1)c1nc2ccc(F)cc2s1 -2.76%, CCc1nnc(NC(=O)CSc2nc3c([nH]c4ccccc43)c(=O)n2-c2ccc(OC)cc2)s1 -5.68%, CCOC(=O)c1c(Nc2cccc(C)c2)nnc(-c2ccccc2)c1-c1ccccc1 -15.5%, Nc1nc(N)c(S(=O)(=O)c2ccccc2)c(Nc2ccc(F)cc2)n1 15.3%, CCOC(=O)N1CCC(NC(=O)c2ccc3c(c2)N(Cc2ccc(Cl)cc2)C(=O)c2ccccc2S3=O)CC1 (stereo not given) 35%, CCc1ccc2occ(CC(=O)N(Cc3ccc(N(C)C)cc3)C3CCS(=O)(=O)C3)c2c1 (stereo not given) 9.28%, COc1cc(-c2ccno2)ccc1S(=O)(=O)N1CCN(c2ccc(F)cc2)CC1 -2.87%, O=C(CSc1nc2ccccc2nc1Cc1ccccc1)N1CCCc2ccccc21 -9.92%, CCCc1cc(=O)[nH]c(Nc2ccc(O)cc2C)n1 -5.28%, Cc1cccc(C(=O)Nc2ccc(N3CCC(CCN4CCOCC4)CC3)c(C(=O)O)c2)c1 7.07%, O=C(Nc1ccc(S(=O)(=O)N2CCC(c3nc4ccccc4s3)CC2)cc1)c1ccccc1F 10.8%, CCOc1ccc(CNC(=O)CCn2cccn2)cc1OC 1.42%, CCCCCOc1ccc(C(=O)N(Cc2ccccc2)C2CCS(=O)(=O)C2)cc1 (stereo not given) 10.7%, CCOC(=O)c1nc(Nc2cccc(C)c2)c2ccccc2n1 0.329%, CCN(C(=O)NCc1noc2ccccc12)c1cc(C)ccc1C 1.66%, CCC(C(=O)NCCc1ccc(Cl)cc1)n1nc(C)c2c(C)n(-c3ccccc3)nc2c1=O (stereo not given) 2.86%, Cc1cc(NC(=O)CN(C)S(=O)(=O)c2ccc3c(c2)CCC(=O)N3)ccc1Br -5.34%, Cc1cccc(Cn2c(C)c(C)c3cc(C(=O)NCc4ccc(C)o4)ccc32)c1 -1.6%, CCOc1ccc(NC(=O)CN2C(=O)C(c3ccccc3)=NC23CCCCCC3)cc1 -6.65%, CCCCC12CN3CC(C)(CN(C1)C3c1c(C)[nH]c(=O)[nH]c1=O)C2=O (stereo not given) 4.14%, Cc1cccc(CS(=O)(=O)Cc2ccc(C(=O)NCc3ccc(Cl)cc3)o2)c1 -2.82%, COc1ccc(-c2cccc(NS(=O)(=O)c3cc(C)c(Cl)cc3C)c2)nn1 -4.25%, CCN(CCCNC(=O)c1nn(-c2ccc(OC)cc2)c(=O)c2c1c1ccccc1n2C)c1cccc(C)c1 1.32%, O=C(CSc1oc(-c2ccco2)nc1S(=O)(=O)c1ccc(Cl)cc1)c1ccccc1 -19.4%, COc1cccc(CSc2nc3n(n2)C(c2ccccc2C)C(C(=O)Nc2ccccc2OC)=C(C)N3)c1 (stereo not given) -2.09%, Cc1ccc(Nc2nccc(N(C)c3ccc4c(C)n(C)nc4c3)n2)cc1S(N)(=O)=O 34.6%, COC(=O)c1ccc(NC(=O)CC2C(=O)N(c3cccc(OC)c3)C(=O)N2Cc2cccc(OC)c2)cc1 (stereo not given) -5.26%, CCOc1ccc(CN2C(=O)c3ccccc3Sc3ccc(C(=O)NCc4ccc(C)cc4)cc32)cc1 -1.07%, Cc1nc2nc(SCC(=O)NC(C)c3ccccc3)nn2c(C)c1Cc1c(F)cccc1Cl (stereo not given) -2.22%, Cc1ccc(CCNC(=O)CCSCc2ccc(Cl)cc2)cc1 -6.27%, COCCCn1c(=N)c(C(=O)NC2CCCC2)cc2c(=O)n3ccccc3nc21 5.65%, CC(=O)Nc1ccc(NC(=O)CN2C(=O)CN(C)C(=O)c3ccccc32)cc1 9.36%, CC(C)Cc1nn2c(=O)cc(COC(=O)c3ccccc3NC(=O)c3ccccc3)nc2s1 -7.37%, CCOc1ccc(-n2c(SCc3nc(-c4ccccc4C)no3)nnc2-c2ccccc2)cc1 2.31%, CN(C)c1ccc(CNc2nc(-c3ccco3)nn2C(=O)c2cccc([N+](=O)[O-])c2)cc1 0.644%, CCCn1c(=O)c2sccc2n2c(CCCC(=O)NCCOC)nnc12 -0.76%, CC(=O)N1CCCc2cc(S(=O)(=O)N3CCCC(C(=O)NCc4ccc(Cl)cc4)C3)ccc21 (stereo not given) 11.4%, Cc1cc(O)c(C(c2cccc(Cl)c2)N2CCN(c3ccccc3)CC2)c(=O)n1Cc1ccco1 (stereo not given) 2.4%, CC(C)CC(=O)Nc1ccc(C(=O)OCc2cc(=O)n3nc(C4CCCCC4)sc3n2)cc1 12.6%, COc1ccccc1NC(=O)CSc1ncc2c(n1)-c1cc(Cl)ccc1N(C)S2(=O)=O 8.88%, CCc1ccc(-n2c(C)nc3cc(C(=O)NCCc4ccccc4)ccc32)cc1 2.57%, CCC1CN(C(=O)NCc2ccc(F)cc2)c2ccccc2O1 (stereo not given) 5.26%, COc1ccc(C2CC(=O)N3CN(C4CCCCC4)CSC3=C2C#N)cc1 (stereo not given) -5.08%, Cc1ccc(Cn2c(=O)c3ccccc3n3c(-c4ccccc4)nnc23)cc1 -4.45%, CCc1ccc(CNC(=O)CSCc2cnn(-c3ccccc3)c2-n2cccc2)cc1 -9.01%, Cc1ccc(Cl)cc1NC(=O)CCS(=O)(=O)c1ccc(Br)s1 0.188%, COc1ccc(CCNC(=O)C(=O)NCC(c2cccs2)S(=O)(=O)c2ccccc2)cc1 (stereo not given) 0.314%, O=C(Nc1ccc2c(c1)N(C1CCCC1)C(=O)c1ccccc1S2)c1ccccc1 -9.53%, COc1ccc(OC)c(CNS(=O)(=O)c2ccc(-c3cc(C(F)(F)F)on3)s2)c1 14.6%, CCOC(=O)c1noc2ncn(CC(=O)O)c(=O)c12 -0.604%

outcome, inactive:
COc1ccc(CCN2C(=O)CN(C3CCCCCC3)C(=O)C2c2ccc(C)cc2)cc1OC (stereo not given), O=C(NCc1ccccn1)c1nn(-c2ccccc2F)nc1CO, COc1ccc(OC)c(NC(=O)c2cc3cc4ccc(C)cc4nc3s2)c1, CC1=C(C(=O)Nc2ccccc2)C(c2cccs2)n2nc(SCc3ccccc3)nc2N1 (stereo not given), CCOC(=O)N1CCc2c(sc3c2c(=O)n(-c2ccc(CC)cc2)c(=O)n3Cc2cc(C)ccc2C)C1, CCOc1ccc(NC(=O)Cn2c(=O)cc(C)c3c(C)nn(-c4ccc(CC)cc4)c32)cc1, Cn1ccc2cc(S(=O)(=O)N3CCN(C(=O)Nc4ccccc4F)CC3)ccc21, Cc1cccc(N(C)S(=O)(=O)c2nnc(NC(=O)C3CCCCC3)s2)c1, CCOC(=O)c1cccc(NC(=O)c2sc3nc[nH]c(=O)c3c2C)c1, Cc1cccc(C(CC(=O)NCC2(c3ccccc3)CCCC2)c2ccccc2)c1O (stereo not given), CCOc1ccc(CCNC(=O)c2cc3c(-c4cccc(OC)c4)nn(C)c3s2)cc1OCC, Cc1ccc(-c2nc3c4cnn(-c5cc(Cl)ccc5Cl)c4ncn3n2)cc1, Cc1ccc(S(=O)(=O)c2nnn3c2nc(Nc2ccc(C(C)C)cc2)c2sccc23)cc1C, Cc1nc(N2CCCC2)ncc1C(=O)Nc1ccccc1, COc1cccc(CN2C(=O)c3ccccc3C2C(=O)NCCc2ccc(OC)c(OC)c2)c1 (stereo not given), CN(C)c1ccc(CN(CC2CCCO2)C(=O)COc2ccc(Cl)cc2)cc1 (stereo not given), COc1ccc(-n2c(=O)c3c4c(sc3n(Cc3cc(=O)n5c(C)cccc5n3)c2=O)CCC4)c(OC)c1, Cc1ccc(NC(=O)c2ccco2)c(OCc2cc(=O)n3cc(C)sc3n2)c1, Cc1ccc(OCC(=O)Nc2ccc3nc(SCC(=O)N4CCCC4)sc3c2)cc1C, Cc1ccc(SCC(=O)Nc2ccc3oc(-c4cccc(C)c4)nc3c2)cc1, COc1cccc(-c2nc(CS(=O)CC(=O)N3CCN(c4cccc(C(F)(F)F)c4)CC3)c(C)o2)c1 (stereo not given), O=C(Cn1cc(SCc2ccccc2Cl)c2ccccc21)N1CCCCCC1, O=C(NCCC1=CCCCC1)c1ccc2c(c1)N(Cc1ccccc1)C(=O)c1ccccc1S2(=O)=O
